Source: PubChem BioAssay (NCI)
“And” between values parts separate entries of the source, which are not always exact repeats. Identical values can stand only once.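 48-hour exposure; five concentrations; linearly interpolated endpoints. GI50 = concentration required for 50% inhibition of growth. TGI marks complete inhibition of growth.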 Square brackets hold non-standard residues; d marks the D form. Peptide text beside a SMILES is read from it. * marks the point of attachment. ξ: configuration not given here. X34 = O=C(OCc1ccccc1)[C@@H]1CCC[C@H]1N*; Fmoc = O=C(OCC1c2ccccc2-c2ccccc21)*; ξW = NC(Cc1c[nH]c2ccccc12)C(=O)O; ξF = NC(Cc1ccccc1)C(=O)O; Boc = CC(C)(C)OC(=O)*; ξK = NCCCCC(N)C(=O)O; ξT = CC(O)C(N)C(=O)O; tBu = CC(C)(C)*

Each compound was assayed on NCI-H322M lung (assay: NCI tumour cell line growth inhibition, 48 h).

Row | SMILES | GI50 | TGI
1 | CC(=O)OCC1OC(n2c(-c3ccccc3)c(N=Nc3ccc(Cl)cc3)c(C)c(C#N)c2=S)C(OC(C)=O)C(OC(C)=O)C1OC(C)=O (centres undefined) | 31.3 µM and > 100 µM | > 100 µM
2 | CCC1OC2C(CC=C(C)C)=C3OC(C)(O)C(C)(CC)C(O)C3=C3OC(=O)C=C1C32 (centres undefined) |  | > 100 µM
3 | COC(=O)c1ccc(/C=C/C2=CC(=O)C=CC2=O)cc1 |  | > 100 µM
4 | CCCNc1nc(-c2ccc(OC)cc2)nc2ccccc12 | 15.3 µM | 29.6 µM
5 | O=C1c2cccnc2-c2nc(-c3ccc([N+](=O)[O-])cc3)cc3c2c1nc1ccccc13 | 6.33 µM | 21 µM
6 | COC(=O)c1c(-c2ccccc2)csc1NC(=O)c1c(-c2ccccc2)noc1C | > 100 µM | > 100 µM
7 | Cc1nc2cc(O)c(O)cc2cc1Oc1ccc(NC(=O)Nc2ccc(Cl)c(Cl)c2)cc1 | 14.1 µM | > 32.5 µM
8 | COc1cc2c(/C=C3\C(=O)Nc4ccc(Br)cc43)c(Cl)n(C)c2cc1C | 2.46 µM | 10.4 µM
9 | COc1cc(/C=C\c2ccc(SC)cc2)cc(OC)c1OC |  | > 100 µM
10 | Nc1nc(Cl)cc(NCC2(CO)CC(CCCCc3ccccc3)C2)n1 (centres undefined) |  | > 100 µM
11 | CCOc1ccc(N=NC2C(=O)N(C(=O)CC(=O)Nc3ccc(Cl)cc3)N=C2C)cc1 (centres undefined) |  | > 100 µM
12 | CC(=O)OC1CC2(O)C(CCC3(C)C(c4ccc(=O)oc4)CCC32O)C2(C)CCC(O)C=C12 (centres undefined) | 0.0808 µM | 0.122 µM and 0.106 µM
13 | CC(=O)NC1C(OCC(=O)NC(C)C(=O)NC(CCC(=O)NCCCCCNc2ccc([N+](=O)[O-])c3[nH]c4ccccc4c(=O)c23)C(N)=O)C(O)C(CO)OC1(C)OCc1ccccc1 (centres undefined) |  | > 50 µM
14 | CCCCOC(=O)N[C@H]1CCc2cc(OC)c(OC)c(OC)c2-c2ccc(SC)c(=O)cc21 |  | 15.4 µM
15 | COc1ccc(NS(=O)C2CCCCC2)cc1 (centres undefined) |  | > 100 µM
16 | Cc1cccc(Nc2cn(CCOc3ccccc3)c(=O)[nH]c2=O)c1 |  | > 100 µM
17 | Cc1cc(Cl)ccc1NC(=O)C1C(=O)N(c2ccc(Cl)cc2C)C(=O)/C1=N\N (centres undefined) |  | > 100 µM
18 | COc1ccc(N(C(=O)OC(C)(C)C)[C@@H]2C(C)=C[C@H]([S@@](=O)c3ccc(C)cc3)[C@@H]3C(=O)N(C)C(=O)[C@@H]32)cc1 |  | 72.2 µM
19 | COc1cc(/C=C/C(=O)c2ccc(Nc3nc(Nc4ccc(F)cc4)nc(Nc4ccc(F)cc4)n3)cc2)cc(OC)c1OC | 74.7 µM | > 100 µM
20 | CC(CN(CP(=O)([O-])[O-])CP(=O)([O-])[O-])N(CP(=O)([O-])[O-])CP(=O)([O-])[O-].N[C@@H]1CCCC[C@@H]1N.[Pt+2] (centres undefined) | > 100 µM | > 100 µM

Row | SMILES | GI50 | TGI
21 | CCN(CCCl)CCNc1c2ccccc2nc2ccc(OC)cc12 |  | 3.92 µM
22 | CCCCCCc1cc(C=O)sc1-c1ccc(-c2sc(-c3ccc(-c4ccc(-c5cc(CCCCCC)c(-c6ccc(-c7sc(C=O)cc7CCCCCC)s6)s5)s4)s3)cc2CCCCCC)s1 |  | > 100 µM
23 | CSC(=S)N/N=C(\C)c1ccccn1 | 0.133 µM | 14.1 µM
24 | CC(OC(C)(C)C)C(NC(=O)C(CCCCNC(=O)OC(C)(C)C)NC(=O)C(Cc1c[nH]c2ccccc12)NC(=O)C(Cc1ccccc1)NC(=O)OCC1c2ccccc2-c2ccccc21)C(=O)NC(Cc1ccccc1)C(=O)N[C@@H]1CCC[C@H]1C(=O)OCc1ccccc1 (some centres undefined) (Fmoc-[ξF][ξW][ξK](Boc)[ξT](tBu)[ξF]-X34) |  | > 100 µM
25 | COC(=O)c1oc2c(C(=O)/C=C/c3ccc(OC)cc3)c(OCCCN3CCCCC3)ccc2c1C | 2.24 µM | 7.32 µM
26 | O=Cc1ccc(C(F)(F)F)cc1.[C-]#[O+].[C-]#[O+].[C-]#[O+].[Cr] | 19.7 µM | 68.4 µM
27 | Cc1cc(S(N)(=O)=O)c(S/C(=N\NS(=O)(=O)c2ccc(Cl)cc2)c2ccc(Cl)cc2)cc1Cl | > 100 µM | > 100 µM
28 | C=C(C)C1CC2=C(C(=O)OC)C=C(O2)C(C(=C)C)[C@@H]2OC(=O)/C(=C\C1O)[C@H]2N(C)C (some centres undefined) |  | 48.9 µM
29 | C=C1C(=O)O[C@H]2[C@H]1CC/C(COC(=O)CCC(=O)OC/C1=C/CC[C@@]3(C)O[C@H]3[C@H]3OC(=O)C(=C)[C@@H]3CC1)=C\CC[C@@]1(C)O[C@@H]21 | 12.3 µM | 24.7 µM
30 | Nc1nc(Cl)nc2c1ncn2C1O[C@H](CO)[C@@H](O)[C@@H]1F (some centres undefined) | 1.2 µM | > 100 µM
31 | CC(O)CN(CCN(CC(C)O)CC(C)O)CC(C)O.O=[N+]([O-])O.[Cu+2] (centres undefined) | 29.6 µM | > 100 µM
32 | CC(=O)OCc1ccc(-c2nc(C#N)c(N)o2)o1 |  | > 10 µM
33 | CC(=O)OC(C)(C)C1CCC(C)(C(O)COc2ccc(CCNC(=O)c3ccccc3)cc2)O1 (centres undefined) |  | > 100 µM
34 | CN1CCN(c2ccc3nc(-c4ccc(OCCCN5C(=O)c6cccc7cccc(c67)C5=O)cc4)[nH]c3c2)CC1 | 16.4 µM | 62.5 µM
35 | Cc1ccc(Cl)cc1Nc1nc(C(F)(F)F)ccc1C(=O)Oc1ccc(Cl)cc1 | 10.8 µM | 35.9 µM
36 | O=C(NC(=S)NS(=O)(=O)c1ccc(N2N=C3c4ccccc4CC3C2c2cccs2)cc1)c1ccccc1 (centres undefined) | 14.2 µM | 57.5 µM
37 | Cc1cccc(C)c1NC(=O)C(=O)C1C(=O)N(c2ccccc2)N=C1N (centres undefined) |  | > 100 µM
38 | O=C(OCCOCCOC(=O)c1c[nH]cc1-c1ccccc1)c1c[nH]cc1-c1ccccc1 |  | 75.5 µM
39 | CCCCCCCCSC1=CC(=O)C(OC)=C(OC)C1=O | 22.7 µM | 94.3 µM
